“And” between values parts separate entries of the source, which are not always exact repeats. Equal entries are not always repeated. About 40 (0.2%) of roughly 16,000 compounds were called active. Not shown: some 1% with an inconclusive outcome. Calls follow the shape of the dose curve; as a rule, active = well fitted activation curve with a large enough effect; inconclusive = small, poorly fitted or top-dose-only effect, or another doubt; inactive = no such curve, though single readings can be large or run the other way. This is one part of the list.
% is scaled to controls: 0 for no effect and ±100 for the full control effect.

UniProt Q8WZA2, sequence (Q8WZA2 whole entry, looked up): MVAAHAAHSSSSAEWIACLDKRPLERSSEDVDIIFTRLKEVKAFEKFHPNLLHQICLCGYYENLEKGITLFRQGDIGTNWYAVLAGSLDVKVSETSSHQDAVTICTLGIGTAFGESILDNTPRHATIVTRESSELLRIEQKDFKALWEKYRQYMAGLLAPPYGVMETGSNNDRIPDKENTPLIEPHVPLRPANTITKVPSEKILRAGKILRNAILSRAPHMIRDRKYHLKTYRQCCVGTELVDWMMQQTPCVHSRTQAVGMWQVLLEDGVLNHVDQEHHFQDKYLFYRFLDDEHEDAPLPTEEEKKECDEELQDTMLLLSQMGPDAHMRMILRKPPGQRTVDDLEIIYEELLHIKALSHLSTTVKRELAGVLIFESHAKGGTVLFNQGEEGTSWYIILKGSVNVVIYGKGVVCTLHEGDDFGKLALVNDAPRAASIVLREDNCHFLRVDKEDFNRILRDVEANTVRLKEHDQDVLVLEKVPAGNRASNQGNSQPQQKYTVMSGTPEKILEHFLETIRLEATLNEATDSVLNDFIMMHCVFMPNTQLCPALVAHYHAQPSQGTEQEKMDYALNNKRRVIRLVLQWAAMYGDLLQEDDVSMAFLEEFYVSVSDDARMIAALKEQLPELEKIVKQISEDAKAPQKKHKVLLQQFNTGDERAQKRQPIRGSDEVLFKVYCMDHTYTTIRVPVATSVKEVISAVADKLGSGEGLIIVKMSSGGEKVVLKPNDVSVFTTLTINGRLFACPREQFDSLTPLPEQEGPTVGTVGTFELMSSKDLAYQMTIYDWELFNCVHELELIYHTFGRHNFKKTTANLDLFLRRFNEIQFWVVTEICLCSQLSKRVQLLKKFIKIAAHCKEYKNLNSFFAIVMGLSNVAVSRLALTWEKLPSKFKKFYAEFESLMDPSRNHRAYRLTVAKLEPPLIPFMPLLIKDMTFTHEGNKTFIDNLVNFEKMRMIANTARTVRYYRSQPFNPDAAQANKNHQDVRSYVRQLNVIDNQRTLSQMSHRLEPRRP

In the test the target is Rap guanine nucleotide exchange factor 4 (Homo sapiens) (UniProt Q8WZA2). The test can be described thus: Validation qHTS for agonist of cAMP-regulated guanine nucleotide exchange factor 4 (EPAC2).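 Also: exchange makes BODIPY-GDP fluorescence drop when released from Rap1B; series mostly up to about 150 µM.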 Particulars: EPAC2 Rap1B BODIPY-GDP exchange, fluorescence; activation: hits give high values. The source says:
Principle Investigator: Xiaodong Cheng Ph.D.
The University of Texas Medical Branch, […], TX
In multi-cellular eukaryotic organisms, the effects of cAMP are transduced by two ubiquitously-expressed intracellular cAMP receptors, the classic protein kinase A/cAMP-dependent protein kinase (PKA/cAPK) and the more recently discovered exchange protein directly activated by cAMP/cAMP-regulated guanine nucleotide exchange factor (EPAC/cAMP-GEF). Both PKA and EPAC are ubiquitously expressed in all tissues, and an increase in intracellular cAMP levels will lead to the activation of both PKA and EPAC. Therefore, careful dissections of the individual role and relative contribution of EPAC and PKA within the overall cAMP signaling in various model systems are critical for further elucidating the mechanism of cAMP signaling. To date no EPAC-specific antagonists and agonist, as well as isoform-specific agonists have been reported, and developing EPAC-specific pharmacological probes to determine the physiological functions that EPAC play in the overall cAMP-mediated signaling remains a major challenge within the research field. Furthermore, identified regulators of EPAC may lead to new mechanism-based therapeutic strategies specifically targeting the EPAC / cAMP-signaling components as EPAC has been implicated to play important roles in major human pathological conditions such as diabetes, heart disease, and cancer.
This qHTS will be used to screen the Molecular Libraries Small Molecule Repository (MLSMR) as a concentration-titration series using the NCGC unique quantitative screening (qHTS) platform to find activators for EPAC1. In addition, this assay will also be used as a counterscreen for the EPAC2 qHTS. This fluorescent based assay is developed and validated for EPAC1 that measures exchange using EPAC effector Rap1 complex with BODIPY-GDP, a GDP analog with a tethered fluorophores. Activators are identified by monitoring the change in fluorescence signal as the exchanged free BODIPY-GDP has a reduced fluorescence compared to Rap1-bound BODIPY-GDP. Increase in signal (activation) is the desired outcome for the EPAC1 agonist while no activity in this assay is desired for the EPAC2 agonist counterscreen.
[1] de Rooij, J., Zwartkruis, F. J., Verheijen, M. H., Cool, R. H., Nijman, S. M., Wittinghofer, A., and Bos, J.L. (1998) Nature 396, 474-477.
Briefly, three uL of reagents (100 nM EPAC2, 250 nM RAP1B-BODIPY-GDP, 50 uM GDP) were dispensed into a 1536-well Greiner black solid-bottom medium binding assay plate. Controls and test compounds (23 nL) were transferred to the plate via a Kalypsys pin tool equipped with a 1536-pin array. The plates were centrifuged at 1,000 rpm for 15 seconds followed by 5 minute incubation at room temperature. The assay plates were read at 5 minute intervals for 30 minutes in the ViewLux plate reader using 480nm excitation and 540nm emission filters. The results were normalized to the agonist positive control of 6.5 mM cAMP.
For the molecule `CC(C)(N)Cc1ccc(Cl)cc1`, the activation was inactive: -4.69%.

For the molecule `CN(C)C1C(=O)C(C(N)=O)=C(O)[C@@]2(O)C(=O)C3=C(O)c4c(O)ccc(Cl)c4[C@](C)(O)C3CC12` (some centres not stated), the activation is inactive: -30.1%. Take `CC(C)=CCCC1(C)C=Cc2c(O)c3c(c(CC=C(C)C)c2O1)OC12C(CC4CC1C(C)(C)OC2(C/C=C(/C)C(=O)O)C4O)C3=O` (configuration not stated): the activation is inactive: -37.5%.

`c1ccc2c(N3CCNCC3)cccc2c1`: the activation was inactive: 3.65% and inactive: 7.93%. As for `CCCCNCC(O)c1ccc(O)cc1` (configuration not stated), the figure is inactive: -4.86%; as for `CN(C)CCO`, inactive: 9.23%; as for `COCCOCCO`, inactive: -12.8%. With `c1cc(N2CCCC3(CCNCC3)C2)ccn1`, the activation is inactive: -8.13%. As for `CCCCC(CC)COC(=O)c1ccccc1C(=O)OCC(CC)CCCC` (configuration not stated), the activation was inactive: -2.29%. `O=C1C[C@@H]2OCC=C3CN4CC[C@]56c7ccccc7N1[C@H]5[C@H]2[C@H]3C[C@H]46` (tested in a mixture with another compound): the activation is inactive: -10.4% and inactive: -4.16%. For `CCCCc1ccc(C(=O)O)nc1`, the activation is inactive: -18.6% and inactive: 13.1% and inactive: -18.5%. Take `N[C@@H](Cn1ccc(=O)n(Cc2ccc(C(=O)O)cc2)c1=O)C(=O)O`: the activation is inactive: 4.54%. As to `COc1cc(OC)c2c(c1)OC(c1ccc(OC)c(OC)c1)C(O)C2` (configuration not stated), the activation is inactive: -3.17%.

On to `Oc1ccc(Cl)cc1Cc1ccccc1`, for which the activation was inactive: -15.3% and inactive: -39.9%. With `CC(C)N1C(=O)c2ccccc2NS1(=O)=O`, the activation is inactive: -9.84%. Regarding `COc1ccc2c(c1O)-c1c(OC)c(OC)cc3c1[C@@H](C2)N(C)CC3`, the activation was inactive: 2.97%. As for `Oc1ccc2c3c1O[C@H]1c4[nH]c5c(c4C[C@@]4(O)[C@@H](C2)N(CC2CC2)CC[C@]314)C[C@@]1(O)[C@H]2Cc3ccc(O)c4c3[C@@]1(CCN2CC1CC1)[C@H]5O4`, the figure is inactive: 5.82% and inactive: 3.06%; as for `CC[C@]1(O)C(=O)OCc2c1cc1n(c2=O)Cc2cc3ccccc3nc2-1`, inactive: -9.89%. For `CCC1(c2ccccc2)CCC(=O)NC1=O` (configuration not stated), the activation is inactive: -6.25%.

As to `c1cc2ccc3cccc4ccc(c1)c2c34`, the activation was inactive: 5.47%. With `COc1ccc2c3c1O[C@H]1[C@@H](O)C=C[C@H]4[C@@H](C2)N(C)CC[C@@]341`, the activation is inactive: 6.77%. Turning to `C[C@@H]([C@H](O)c1ccccc1)N(C)C`, the activation was inactive: -10.1%. For the molecule `N#Cc1ccc(CN2CC[C@@]3(CCCN(C(=O)Oc4ccccc4)C3)C2)cc1`, the activation is inactive: -14.9%. Take `CC1=C2CCC3C4CCC(=O)[C@@]4(C)CCC3[C@]2(C)CCC1=O` (some centres not stated): the activation is inactive: -0.0392%. As for `OC[C@@H]1CCCN2CCCC[C@@H]12`, the figure is inactive: 2.43%; as for `COc1cc(CC(C)N)cc(OC)c1OC` (configuration not stated), inactive: 12.8%; as for `Cc1ccc(Cl)c(O)c1`, inactive: -31.8%. As for `COc1ccc2[nH]cc(CCN(C(C)C)C(C)C)c2c1`, the figure is inactive: -8.55%.

For `CN1C[C@@H](NS(=O)(=O)N(C)C)C[C@@H]2c3cccc4c3c(cn4C)C[C@H]21`, the activation is inactive: -11.5%. Consider `C[N+](C)(C)CC#CCOC(=O)Nc1cccc(Cl)c1`, for which the activation is inactive: 3.63% and inactive: -15.3%. On to `C=C1C(=O)O[C@@H]2C[C@@H](C)[C@@H]3C=CC(=O)[C@@]3(C)[C@@H](O)[C@H]12`, for which the activation was inactive: -4.68%. For the molecule `N#C/C(=C\c1ccc(O)cc1)C(=O)O`, the activation was inactive: -15%. As to `CC(=O)Oc1ccc(/C=C/c2cc(OC(C)=O)cc(OC(C)=O)c2)cc1`, the activation was inactive: -23.3%. With `C=CCN1CCC23c4c5ccc(O)c4O[C@H]2C(=O)CC[C@@]3(O)C1C5` (some centres not stated), the activation was inactive: -11.3%.

Turning to `CN1[C@@H]2CC[C@H]1CC(O[C@@H](c1ccccc1)c1ccc(Cl)cc1)C2` (some centres not stated), the activation is inactive: -6.51%. `CC(C)(O)C(Cl)(Cl)Cl`: the activation was inactive: -10.6%. Regarding `Cc1ncc(CNC(=O)N(CCCl)N=O)c(N)n1`, the activation was inactive: -7.13% and inactive: -23.3%. As for `CC1(C)C(=O)C=C[C@@]2(C)C1=C(O)C(=O)[C@@]1(C)C2CC[C@@]2(C)C(c3ccoc3)C[C@H]3O[C@@]321` (some centres not stated), the activation was inactive: 0.564%. As for `CC(N)[C@H](O)c1ccc(O)c(O)c1` (some centres not stated), the figure is inactive: -20.5%; as for `CCC1C(C)=NN=C(c2ccc(OC)c(OC)c2)c2cc(OC)c(OC)cc21` (configuration not stated), inactive: -1.63%. In the case of `CC(C)=CC1C(C(=O)OCN2C(=O)C3=C(CCCC3)C2=O)C1(C)C` (configuration not stated), the activation was inactive: -9.01%. Consider `CN1CCCCC1c1ccc(-c2cccnc2)nc1` (configuration not stated), for which the activation was inactive: -12.6% and inactive: -17%.

For the origin of these results see PubChem BioAssay AID1645887 (National Center for Advancing Translational Sciences (NCATS), 2021).
